The supplement of paper PMC11383711
This is one part of the list. Binding of human antibodies (heavy:light variable regions, tested as scFv in one mRNA-display pool) to influenza hemagglutinin, with or without the stem antibody CR9114 bound first. Score = (mean enrichment − median) / interquartile range of that screen; higher = more enriched, 0 = typical non-binder. Active = above the paper's cut-off per screen: stems 28; unblocked H1 Solomon Islands 5, H1 Michigan 3, H3 5, H5 19, H7 2.85, both B 5; blocked 9, 7, H5 10, H7 10, B Phuket 10, B Lee 11.5. Scores are scaled within each screen and are no affinities; replicates correlate at about 0.6 to 0.9, and antibodies rare in the pool are noisier.

B1: K77-1B08 (protein)
chain 1: EVQLVQSGAEVKKPGESLKISCKGFGFSFTNYWIGWVRQMPGKGLDWMGIIYPGDSDPRYSPSFQGQVTISADKSLSTAFLQWNSLKASDTAMYYCASNILNYRKNWYLGGAFDIWGQGTMVTVSS
chain 2: QSALTQPPSASGTPGQGITISCSGRSSNIGSNTVNWYQQLPGTAPKLLIYTNDQRPSGVPDRFSGSRSGTSASLAISGLQSGDESDYYCATWDDSLNAYVFGTGTKVTVL
B2: R95-1C09 (protein)
chain 1: LVQLQESGPGLVKPSETLSLTCTVSGDSVTDYYWSWIRQPPGKGLEWIGYIYYSGITNYNPSLKSRVTMSVDTSKNQISLKLTSVIAADTAVYYCARDGRLFDIWGQGTMVAVSS
chain 2: EIVLTQSPGTLSLSPGERATLSCRASQHVSSSYLAWYQQKPGQAPRLLIYDASSRATGIPDRFSGSGSGTDFTLTISRLEPEDFAVYYCQQYGSSHGWTFGQGTKVEVK
B3: C7-3-A05 (protein)
chain 1: VQLVQSGAEVKKPGPGASVKVSCKASGDSFTNYYMHWVRQAPGQGLEWMGMINPNGGNVTYAQNFQDRVTMTIDTSTSTVYMELSSLRSEDTAVYFCVRVFEEQWLAYWGQGTLVTVSS
chain 2: EIVLTQSPATLSLSPGERATLSCRASQSVRNYLAWYQQKPGQAPRLLIYDASNRATGIPARFSGSGSGTDFTLTISSLEPEDSAVYYCQQRFNGLCSFGQGTKVEIK
B4: C2-3-D06 (protein)
chain 1: VQLQESGPGLVKPSETLSLTCTVSADSISSYFWTWIRQPPGKGLEWIGYIYYSGSTNYNPSLKSRVTISLDTSKRLLSLKLSSVTAADTAVYYCARDSTVFPRIFDSWGQGTLVTVSS
chain 2: IVMTQSPGTLSVSPGERATLSCRASQSVGSSFLAWYQQKLGQAPRLLIYGVSSRATGVPDRFSGSGSGTDFTLTISRLEPEDFAVYYCQQCGSSPWTFGQGTKVEIK
B5: 01.z.01 (protein)
chain 1: QVQLQESGPGLVKPSQTLSLTCTVSGGSITNDDSYWSWIRQTPGKGLEWIGYIFHSGNTYYNPSLKSRVTISVDTSKNQFSLEVTSVTAADTAVYYCARDTGVIKDEYFYYYGLDVWGQGTTVTVSS
chain 2: EIVMTQSPATLSVSPGERATLSCRAGQSVNTNLAWFQQKPGQAPRLLIYGASTRATGIPARFSGSGSGTEFTLTISSLQSEDCAVYYCQQYNQWPLNTFGQGTKLEIK
B6: AG10-3A02 (protein)
chain 1: VQLVESGGGLVQPGGSLRLSCLGSGFTFSRYSMNWVRQAPGKGLEWVSYISDSSRTIYYADSVKGRFTIFRDNAKNSLYLQMNSLRDEDTAVYYCARDPDTAHDRYFDSWGQGTLVTVSS
chain 2: DIQLTQSPSFLSASVGDRVTITCRASQVIGSYFAWYQQKPGKAPKLLIYATSTLQSGVPSRFSGSGSGTEFTLTISGLQPEDFATYYCQQLNTYPPITFGPGTKVDIK
B7: C6-G03 (protein)
chain 1: VQLVESGGGLVQPGRSLRLSCAASGFSFDDFAMHWVRQAPGKGLEWVSGVTWNSGSRDYADSVKGRFTISRDNDKNSLSLQMNSLRPEDTAVYYCVKGRGGVYTGYGPRYLDYWGQGTLVTVS
chain 2: DIQMTQSPTSLSASVGDRVSITCRASQSVITYLHWYQQKPGKAPKLLISAASSLQSGVSSRFSGSGSGTDFTLTISSLQPEDYATYYCQQSYSSPRTFGPGTKVDIK
B8: 014-10-3C04 (protein)
chain 1: QVQLVESGGGVVRPGRSQSLSCAASGFTITPYTMFWVRQAPGKGLEWVAMILYDGSSTDYAGPVKGRFTISRDNSKNTLNLQMNSLRAADTAVYYCARGYGSGKSHYYFDYWGQGTLVTVSS
chain 2: EIVLTQSPGTLSLSPGERATLSCRASQSVSSFYLAWYQQKPGQAPRLLLYGTSNRATGIPDRFSGSGSGTDFTLTISRLEPEDFAVYYCQQYDTSLTFGPGTKVDIK
B9: K77-1G05 (protein)
chain 1: EVQLVESGGGVVQPGRSLRLSCAASGFTFSSYSLDWVRQAPGKGLEWVAVISYDGSDKYFADSVKGRFTISRDNSKNTLYLQMNSLRAEDTAVYYCARDSTGYYSFDYWGQGTLVTVSS
chain 2: QSALTQPASVSGSPGQSITISCTGTSGDVGNYDLVSWYQHHPGKAPKLMIYEGSERPSGVSNRFSGSKSGNTASLTISGLQAEDEADYYCCSYARGGTGVFGTGTKVTVL
B10: AG11-2C03 (protein)
chain 1: VQLQESGPGLVKPSETLSLTCRVSGGSIDGDTYYWGWVRQPPGKGPEWIGSMSPNGITYYGPSLKSRVTMSVDSSLKSFSLRMTSVTTTDTAVYYCARDRDIVSRGGFDNWGRGTLVTVSS
chain 2: DIQMTQSPSSLSASVGDRVTITCRASQSISHFLNWYQHRPGQAPKLLIYLASTLHSGVPSRFSGSGSGTYFTLTISGLQPEDFATYYCQQSYSNDPYTFGQGTKVEIK
B11: R95-2A08 (protein)
chain 1: EVQLVESGGGLVQPGGSLRLSCAASGFIVNKNHMNWVRQAPGKGLEWVSVIYSGGNPYHADSVEGRFTISRDISKNTVHLQMNSLGAEDTAVYYCARDGGGWYVNDAFDIWGQGTTVTVSS
chain 2: QSALTQPASVSGSPGQSITISCTGTSSDIGGYNYVSWYQQHPGKAPKLIIFEVTTRPSGISNRFSGSKSGNTASLTISGLQAEDEADYYCSSYRSTTDVLFGGGTKVTVL
B12: AG9-4A02 (protein)
chain 1: VQLVESGGGWVKPGGSLRLSCEASGFKFSDHYMAWIRQAPGKGLEWISYISDNGKTEYYADSVRGRFTVSRDNGQYFLYLEMNNVRVEDTAVYYCAREPGQWLEGWFDPWGQGTLVTVSS
chain 2: DIVMTQSPLSLRVTPGEPASISCKSSQSLLHGNGYNYLDWYLQRPGQSPQLLIYLGSNRASGVPDRFSGSGSGTDFTLKISRVEAEDVGVYYCMQALHTPPWTFGQGTKVEIK
B13: C3-2-3C01 (protein)
chain 1: VQLLESGGGLVQPGGSLRLSCAASGFTLSSNAMAWVRQVPGKGLQWVSGIGGIGGSTYYADSVKGRFTMSRDNSRNTLYLQMNSLRVEDTAVYYCAKGVGRIFMVRGFYFDYWGQGALVTVSS
chain 2: DIQMTQSPSPLSASVGDRVTITCRASQSITSYLNWYQQRPGKAPKLLIYAASNLQTGVPSRFSGSGSGTDFTLTISSLQPEDFATYYCQQSYSTPHTFGPGTKVDIK
B14: antibody 1B02 (protein)
chain 1: VQLLESGGGLVPPGGSLRLSCAASGLSFSSYSMSWVRQAPGKGLEWVSAIGGLHGSTYYADFVEGRFTISRDNSRDTVFLQMNYLRAEDTALYYCASDLDGDDGTWFDNWGQGTLVTVSS
chain 2: EIVMTQSPATLSVSPGERATLSCRASQSVSTNLTWYQQKPGQAPRLLIYGASTRASGIPASFSGGGSGTEFTLTISSLQSEDFAVYFCQQYNDWPPTFGQGTKVEIK
B15: K77-2G11 (protein)
chain 1: QMHLQESGPGLVKPSQTLSLTCSVSGGSINNGGYYWSWVRQHPGKGLEWVGYVYHSGNTYYNPSLKSRISMSVDTSNNRFSLKLNPVTAADTAVYFCARVGLTHYDVLTAYYSGYSDTWGQGTLVTVSS
chain 2: DIQMTQSPSSVSASVGDRVTITCRASQDIATWLAWYQQKPVGPPKLLIHGASTLGSGVPSRFSGSGSGTDFTLTISGLQPGDFATYFCQQAYSLPITFGQGTRL
B16: R95-1A03 (protein)
chain 1: EVQLVESGGGLIQPGGSLRLSCAASGFTVSINYMSWVRQAPGKGLEWVSVIYTGGETYYADSVKGRFTISRDNSKNTLYLQMNSLRAEDTAVYYCARDGPPGDGSLDYWGQGTLVTVSS
chain 2: SYELTQPPSVSVAPGQTARITCGGNNIGSKSVHWYQQKPGQAPVLVVYDDSDRPSGIPERFSGSNSGNTATLTISRVEAGDEADYYCQVWDSFSDVVFGGGTKLTVL
B17: 236-14-IgG-1F03 (protein)
chain 1: QVQLVESGGGVVQPGRSLRLSCAAFGFTFSSFPMHWVRQAPGKGLEWVAVISYDGSNKYYADSVKGRFTISRDNSKNTLYVQMNSLRAEDTAVYYCSRDQGGDYGDYGGGFDYWGQGTLVTVSS
chain 2: QSVLTQPPSASGTPGQRVTISCSGSSSNIASNTVNWYQQVPGTAPKLLIYSNDVRPSGVPDRFSGSKSGTSASLAISGLQSEDEADHYCAVWDDSLNAYVFGTGTKVTVL
B18: W85-3B09 (protein)
chain 1: EVQLLESGGGLVQPGGSLRLSCAASGFTFSDYAMSWVRQAPGKGLEWVAILSGSSGHTYYPDSVKGRFTISRDNSKNTLYLQLTSLRAEDTAVYYCAKGGGQQPTWDGMDVWGQGTTVTVSS
chain 2: DIQMTQSPSTLSASVGDKVTITCRASQSINRWLAWYQQKPGKAPKLLIYRASSLESGVPSRFSGSGSGTEFTLTISSLQPDDFATYFCQHYEGYSWTFGQGTKVDIK
B19: antibody 4F05 (protein)
chain 1: VQLQQWGAGVWRPSETLSLTCGVSGGSFNGNYWTWIRQSPGKGLEWMGEVDDNGRTNYNPSLTGRVSMSVDTTKKQFSLNLTSMTAADTAVYYCARRGSGSRLVRADYYIDVWGQGTTVTVSS
chain 2: EIVLTQSPGILSLSPGERATLSCRASQTVGSSYLAWYQQRPGQPPRLLIFGSSTRATGVPDRFSGSGSGTDFTLTISRLEPEDFAVYYCQRYGPSPRFTFGPGTKVDIK

molecular target: H1 HA stem construct (mini-HA #4900); test: mRNA display binding score; higher = more enriched on the antigen; details: antigen blocked with: nothing
Protocol: (§1)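 A pool of natively paired antibodies, displayed as scFv on mRNA, was selected once on antigen-coated beads and sequenced before and after; two replicates.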

Binder | mRNA display binding score
B1 | inactive: 0.0538
B2 | inactive: 0.000898
B3 | inactive: 0.499
B4 | inactive: 0.499
B5 | inactive: 0.184
B6 | inactive: 0.285
B7 | inactive: 0.572
B8 | inactive: -1.07
B9 | inactive: -1.17
B10 | inactive: 4.6
B11 | inactive: -0.277
B12 | inactive: 0.169
B13 | inactive: -0.243
B14 | inactive: 0.301
B15 | inactive: 0.0612
B16 | inactive: -0.738
B17 | inactive: -0.519
B18 | inactive: -0.123
B19 | inactive: 0.342

molecular target: H3 HA stem construct (H3ssF); test: as above; details: antigen blocked with: nothing
Protocol: as §1

Binder | mRNA display binding score
B1 | inactive: 1.14
B2 | inactive: -0.154
B3 | inactive: 0.743
B4 | inactive: -0.214
B5 | inactive: 0.454
B6 | inactive: -0.239
B7 | inactive: -0.0673
B8 | inactive: -0.459
B9 | inactive: -0.885
B10 | inactive: 13.7
B11 | inactive: 0.903
B12 | inactive: -0.185
B13 | inactive: -0.628
B14 | inactive: -0.147
B15 | inactive: 0.0111
B16 | inactive: -0.375
B17 | inactive: -0.566
B18 | inactive: -0.293
B19 | inactive: -0.213
